Assay results published in the supplement of paper PMC10126150.
Sequences with one replicate were seen in a single cluster, so their values are uncertain.

tested on: ATP; experiment: switch fluorescence ratio, 500 uM ATP over buffer (Cy3 cluster intensity, sum of 5 cycles each) (fold (ratio)); higher = stronger signal-on switching upon ATP binding; sequences stand for … in TCGTCGGCAGCGTCAGATGTGTATAAGAGACAGTTTTTTTTTTTTTTTTTTTTTTTTT…TC; conditions: aptamer strand: ATP DNA aptamer (quencher-CACCTGGGGGAGTATTGCGGAGGAAGG + anchor), 100 nM annealed; ATP concentration: 500 uM; one replicate
How it was run: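 After annealing to 100 nM quencher-labelled ATP aptamer, Cy3-labelled switching-strand clusters on a modified Illumina MiSeq flow-cell were imaged in selection buffer. A second image followed after 15 min with 500 uM ATP at 22 °C, and five such buffer/ATP cycles were done, each separated by NaOH stripping and re-annealing. The fluorescence ratio, averaged per switch-domain sequence, is summed target-cycle over summed buffer-cycle Cy3 intensity per cluster, with clusters outside 100-1000 RFU excluded.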
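Also: ATP exposure 15 min at 22 °C before imaging.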

Row | Sequence | switch fluorescence ratio
1 | ATTACTGCT | 0.944
2 | ATTAGAGAGA | 1.04
3 | ATTAGAGGGT | 0.997
4 | ATTAGCAGCC | 1.02
5 | ATTAGCGACT | 1
6 | ATTAGCTGTT | 0.97
7 | ATTAGGAC | 0.933
8 | ATTAGGCCAC | 0.999
9 | ATTAGGCCTT | 1.07
10 | ATTAGGGGG | 0.998
11 | ATTAGGTAGC | 1.01
12 | ATTAGTAAAA | 1
13 | ATTAGTTATC | 1.02
14 | ATTATAATGG | 0.963
15 | ATTATACTTG | 1.02
16 | ATTATAGGTC | 1.04
17 | ATTATCCACC | 1.09
18 | ATTATCCCGC | 1.16
19 | ATTATCCTCA | 1.01
20 | ATTATCTAAG | 0.998
21 | ATTATGGGA | 1.01
22 | ATTATGTGTA | 0.997
23 | ATTATTCTCG | 0.978
24 | ATTATTGCAT | 1.02
25 | ATTCAAAGCA | 1.78
26 | ATTCAAAGGC | 1.06

Row | Sequence | switch fluorescence ratio
27 | ATTCAAGCTA | 1.03
28 | ATTCAAGGTA | 1.01
29 | ATTCAATTAA | 1.01
30 | ATTCACAGCT | 1.04
31 | ATTCACTGGT | 1
32 | ATTCACTTGC | 1.04
33 | ATTCAGATGT | 1.04
34 | ATTCAGCTG | 1.01
35 | ATTCAGGAAC | 0.964
36 | ATTCAGGACA | 1.02
37 | ATTCAGGATT | 0.994
38 | ATTCATCCT | 1.15
39 | ATTCCACGC | 1.33
40 | ATTCCAGCAT | 1.2
41 | ATTCCAGGTC | 1.09
42 | ATTCCATTGC | 1.04
43 | ATTCCCGATC | 1.08
44 | ATTCCCTGCG | 1.17
45 | ATTCCGTCAT | 1.1
46 | ATTCCTCACC | 1.27
47 | ATTCGACGTA | 0.923
48 | ATTCGAGGCA | 1.03
49 | ATTCGATTCC | 1.07
50 | ATTCGATTT | 1.03
51 | ATTCGCAAA | 2.08
52 | ATTCGGCCGT | 0.977

Row | Sequence | switch fluorescence ratio
53 | ATTCGGCGAC | 1.01
54 | ATTCGGGAGG | 0.994
55 | ATTCGGGCG | 0.905
56 | ATTCGTAACA | 0.953
57 | ATTCTCATTT | 1.02
58 | ATTCTCCTGC | 1.07
59 | ATTCTGACGG | 0.987
60 | ATTCTGGCGG | 1.03
61 | ATTCTTTCGT | 0.99
62 | ATTGAAAATG | 1.03
63 | ATTGAATGCT | 1.03
64 | ATTGACGGCC | 1.05
65 | ATTGACTCGA | 1
66 | ATTGCATTCT | 0.977
67 | ATTGCCAGT | 1.01
68 | ATTGCGATA | 1.07
69 | ATTGCGGGGT | 0.956
70 | ATTGGAACCG | 1.03
71 | ATTGGACCGT | 0.988
72 | ATTGGAGAC | 0.982
73 | ATTGGAGTGT | 0.949
74 | ATTGGCTGTA | 0.99
75 | ATTGGGCCCG | 0.961
76 | ATTGGGCTTG | 0.987
77 | ATTGGGGGA | 0.977
78 | ATTGGGTGAC | 1.01

Row | Sequence | switch fluorescence ratio
79 | ATTGGGTTAC | 1.01
80 | ATTGGTGGGT | 0.984
81 | ATTGTAGATG | 1.02
82 | ATTGTAGCGG | 0.959
83 | ATTGTATCTT | 0.97
84 | ATTGTATTCA | 0.968
85 | ATTGTCAGTC | 0.96
86 | ATTGTCGACG | 1.03
87 | ATTGTTACCC | 1.01
88 | ATTGTTGGGC | 0.984
89 | ATTGTTTCTG | 0.963
90 | ATTGTTTCTT | 1.01
91 | ATTTAAAAGA | 0.992
92 | ATTTAAAATA | 1.05
93 | ATTTAACATT | 0.976
94 | ATTTAAGTCA | 1.01
95 | ATTTAATAGG | 1.02
96 | ATTTAATTA | 1
97 | ATTTAATTTA | 1
98 | ATTTACAGAG | 1.06
99 | ATTTACTGTT | 1.06
100 | ATTTAGAGAT | 1.03
101 | ATTTAGGAT | 1.01
102 | ATTTATAATC | 0.967
103 | ATTTCAACGA | 1.03
104 | ATTTCACATG | 1.02

Row | Sequence | switch fluorescence ratio
105 | ATTTCGCTGA | 1.03
106 | ATTTCGGCC | 0.967
107 | ATTTCGTCAT | 1.01
108 | ATTTCTCAGA | 1.02
109 | ATTTCTTCTA | 1.02
110 | ATTTGAGGAC | 0.962
111 | ATTTGAGTTC | 1
112 | ATTTGCCGTT | 1.02
113 | ATTTGCGATC | 1.18
114 | ATTTGCGTCG | 0.957
115 | ATTTGGAATG | 1
116 | ATTTGGACAG | 1.03
117 | ATTTGGATTA | 0.971
118 | ATTTGGTATA | 1.01
119 | ATTTGTAGAT | 1.04
120 | ATTTGTCAAT | 1
121 | ATTTGTGATC | 1.03
122 | ATTTGTGGAG | 1.01
123 | ATTTGTTAAA | 0.979
124 | ATTTGTTCGT | 0.978
125 | ATTTTACATG | 0.982
126 | ATTTTAGGTA | 0.956
127 | ATTTTAGTCT | 0.981
128 | ATTTTCACCC | 1.05
129 | ATTTTCAGCA | 1.06
130 | ATTTTCATCG | 1.03

Row | Sequence | switch fluorescence ratio
131 | ATTTTGAGAG | 0.997
132 | ATTTTGTACG | 1.05
133 | ATTTTTTGA | 1.03
134 | CAAAAACTA | 1.01
135 | CAAAACCATT | 1
136 | CAAAACGGCG | 1.07
137 | CAAAATAGCC | 0.993
138 | CAAAATAGTA | 0.969
139 | CAAAATTAGT | 1.01
140 | CAAAATTAT | 1
141 | CAAACCATAC | 1.71
142 | CAAACCTAT | 1.05
143 | CAAACGCCCA | 1.25
144 | CAAACTAACG | 1.23
145 | CAAACTTGTG | 0.996
146 | CAAAGAAGGT | 0.981
147 | CAAAGCATG | 1.05
148 | CAAAGCGGTG | 1.03
149 | CAAAGGATAA | 1.01
150 | CAAAGTTGC | 0.998
151 | CAAATAATCA | 1.02
152 | CAAATACATG | 1.04
153 | CAAATATCAA | 1.04
154 | CAAATGGAAA | 0.981
155 | CAAATTAGAG | 0.972
156 | CAAATTCAAT | 1

Row | Sequence | switch fluorescence ratio
157 | CAAATTGAGC | 1.05
158 | CAAATTGCGT | 0.989
159 | CAACAATAGC | 1.25
160 | CAACACTCTT | 1.03
161 | CAACAGCGTT | 0.975
162 | CAACATATAT | 0.965
163 | CAACATTGGC | 1.15
164 | CAACCGGACT | 1.19
165 | CAACCGGCT | 1.06
166 | CAACCGTCAC | 1.83
167 | CAACCTAAAT | 1.01
168 | CAACGTCCAG | 1.04
169 | CAACGTTAAA | 1.69
170 | CAACTAAGCC | 0.983
171 | CAACTGCAAC | 2.66
172 | CAACTGCCAG | 1.05
173 | CAACTTATAA | 1.06
174 | CAACTTCAC | 1.18
175 | CAACTTCTTG | 1.01
176 | CAACTTTA | 1.11
177 | CAAGAAAAAG | 1.01
178 | CAAGAAAACC | 1.05
179 | CAAGAAAC | 0.993
180 | CAAGAACGCA | 1.08
181 | CAAGAACGTG | 0.97
182 | CAAGAATAAA | 1.02

Row | Sequence | switch fluorescence ratio
183 | CAAGAATAG | 0.989
184 | CAAGACCTGA | 1.03
185 | CAAGACTATA | 1
186 | CAAGAGAGTG | 1.01
187 | CAAGAGTGCG | 1.02
188 | CAAGATTCA | 0.963
189 | CAAGCAATCC | 2.25
190 | CAAGCCAAAC | 1.38
191 | CAAGCGGAAA | 0.98
192 | CAAGCGTGTA | 1.04
193 | CAAGCTAGCT | 0.979
194 | CAAGCTTCA | 1.27
195 | CAAGGAAAAA | 0.976
196 | CAAGGACCTA | 1.03
197 | CAAGGAGTTG | 0.997
198 | CAAGGATAAA | 0.982
199 | CAAGGATGGG | 0.97
200 | CAAGGCATAT | 1.14
201 | CAAGGCATGA | 1.05
